Results as given in the supplement of paper PMC4166925.
± gives the standard deviation of the averaged measurements. Whole data set: some 33,000 sequences, median “E-score (dimensionless, -0.5 to 0.5)” near -0.049, cut for the highest 2% near 0.37. The list shows a part of the results.

What follows are sequences tested on T1, PmTbr T-box DNA-binding domain (GST fusion) (assay: PBM E-score of 8-mer (E-score (dimensionless, -0.5 to 0.5)); Tbr is Tbrain of the sea star Patiria miniata (Pm) or the sea urchin Strongylocentrotus purpuratus (Sp); higher = stronger binding preference; most listed sequences are background and not binding sites). Details: the construct has about 5 more residues each side.
T1 sequence: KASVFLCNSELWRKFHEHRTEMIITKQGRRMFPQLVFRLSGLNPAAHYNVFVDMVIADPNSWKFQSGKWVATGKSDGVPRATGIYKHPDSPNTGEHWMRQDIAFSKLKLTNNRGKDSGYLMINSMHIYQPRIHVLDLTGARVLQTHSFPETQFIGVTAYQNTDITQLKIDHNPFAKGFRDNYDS
Summary of the method: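 Each ungapped 8-mer received an enrichment E-score from the Universal PBM Analysis Suite, averaged over duplicate arrays. The proteins were Tbr T-box DNA-binding domains, covering the whole T-box plus about five flanking residues, fused to GST and expressed in BL21 E. coli at 20 °C before glutathione affinity purification. Universal Agilent oligonucleotide arrays were made double-stranded by primer extension and incubated with 200 nM protein in PBS (pH 7.5). The arrays were then scanned and quantified, and every 8-mer was scored from probe intensities.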

| Sequence | PBM E-score of 8-mer |
| --- | --- |
| CATTTTAG | 0.0773 ± 0.053 |
| CGCTCCAC | -0.125 ± 0.023 |
| ACAGCCTC | -0.206 ± 0.14 |
| TCTTTACA | 0.0932 ± 0.053 |
| AGCTAAAA | 0.0801 ± 0.06 |
| ATGGCATG | 0.078 ± 0.007 |
| TAGAGCAA | -0.214 ± 0.052 |
| ATTCGAAG | -0.00995 ± 0.11 |
| GTCGGCGA | 0.0977 ± 0.03 |
| TGATCGAA | -0.129 ± 0.1 |
| CAGCTCAG | 0.145 ± 0.031 |
| AATGGTGT | 0.292 ± 0.018 |
| ATATTTCC | -0.126 ± 0.024 |
| CCTGTCCC | -0.0942 ± 0.023 |
| TATGCCGA | -0.197 ± 0.039 |
| AGAACCTG | -0.0359 ± 0.059 |
| ATGTCGTA | -0.0353 ± 0.021 |
| GATTAAAC | 0.139 ± 0.024 |
| CGTGTCCA | 0.00534 ± 0.099 |
| TAACGATA | -0.0923 ± 0.086 |
| AGGGACTC | -0.0609 ± 0.055 |
| AGGGCGGA | -0.0315 ± 0.029 |
| ACCAAGTG | 0.222 ± 0.05 |
| ACAGTTGC | 0.262 ± 0.0077 |
| ATTTACCA | -0.05 ± 0.059 |

| Sequence | PBM E-score of 8-mer |
| --- | --- |
| CCGCTTCC | 0.087 ± 0.0016 |
| CCACTTAA | -0.0162 ± 0.043 |
| AGGTGCTC | 0.0655 ± 0.042 |
| AAGAGATC | 0.00823 ± 0.069 |
| CATCTACG | 0.0477 ± 0.028 |
| AGCCCCAC | 0.0504 ± 0.11 |
| AAACTCGC | 0.231 ± 0.024 |
| ACAGTGGC | 0.07305 ± 0.00037 |
| GGGCTGGA | -0.355 ± 0.0071 |
| CGTTCAAG | -0.177 ± 0.028 |
| GCAGAGGA | -0.211 ± 0.024 |
| TCCCATAA | -0.125 ± 0.013 |
| AACACAGT | 0.1819 ± 0.0004 |
| CAGTAACG | 0.091 ± 0.075 |
| TACCTCGA | -0.0364 ± 0.012 |
| GATACCGA | -0.102 ± 0.048 |
| GAGAGTAC | 0.0197 ± 0.044 |
| GGATACCA | -0.0944 ± 0.016 |
| AAGGTCGT | -0.204 ± 0.0052 |
| AGGGAGTC | -0.0843 ± 0.062 |
| AAAGCCTC | 0.138 ± 0.0031 |
| AGTGGAGC | -0.0254 ± 0.067 |
| ATAAATCA | 0.0299 ± 0.034 |
| CGGAGCTA | -0.182 ± 0.069 |
| AGGTGGCA | 0.436 ± 0.0087 |

| Sequence | PBM E-score of 8-mer |
| --- | --- |
| CCGGTGAA | -0.0943 ± 0.01 |
| TATGCCAA | 0.0587 ± 0.026 |
| AACTTGAC | 0.196 ± 0.018 |
| CTACGGAA | -0.177 ± 0.0062 |
| CCCTGCAC | -0.00434 ± 0.053 |
| GCATTAGA | -0.381 ± 0.068 |
| GCGCCGAC | -0.0176 ± 0.051 |
| GCCTGTTA | 0.0194 ± 0.033 |
| GGCAACCA | 0.0351 ± 0.0081 |
| AGATGAAG | -0.107 ± 0.02 |
| ACTCATGG | -0.044 ± 0.047 |
| ATTTCTTC | 0.0759 ± 0.0039 |
| AGGGGCTG | -0.18 ± 0.047 |
| CCATTGCA | -0.131 ± 0.092 |
| CAATTGAC | 0.222 ± 0.041 |
| CTCGAACA | 0.0472 ± 0.016 |
| ACCGACCG | -0.131 ± 0.016 |
| AGTTCTAC | -0.0436 ± 0.026 |
| CCGTAGCC | -0.183 ± 0.079 |
| ACTTACTG | -0.0442 ± 0.021 |
| CCACCGCC | -0.0493 ± 0.11 |
| ATTTGGCA | 0.26 ± 0.045 |
| GAGACTCA | -0.19 ± 0.039 |
| CTGCTTAA | 0.00768 ± 0.037 |
| CTGCCCAG | -0.263 ± 0.069 |

| Sequence | PBM E-score of 8-mer |
| --- | --- |
| CCAGTTAG | -0.128 ± 0.055 |
| CTGAAGTA | -0.209 ± 0.028 |
| ACAACGTG | 0.203 ± 0.024 |
| CAGCTAAG | 0.112 ± 0.035 |
| CGGCAACG | 0.0825 ± 0.062 |
| GGCTAGAC | -0.231 ± 0.029 |
| CTATCCTA | -0.171 ± 0.017 |
| CGGTAATC | -0.167 ± 0.016 |
| GCAAATCC | -0.167 ± 0.1 |
| AGCATCCA | -0.276 ± 0.016 |
| ATGGTTAG | 0.0164 ± 0.081 |
| CTCCACAC | 0.341 ± 0.0092 |
| AACCGGAG | 0.0722 ± 0.034 |
| CTGCAAAG | 0.0565 ± 0.011 |
| GGGGAGCA | -0.293 ± 0.047 |
| GCCGCCAC | 0.154 ± 0.13 |
| AACACCAT | 0.3887 ± 0.0029 |
| ACAAAAAT | 0.0628 ± 0.14 |
| AGAAGTGA | 0.273 ± 0.023 |
| ATCTTAGC | 0.113 ± 0.059 |
| CGGCGTAC | -0.162 ± 0.0097 |
| AACGCAAA | -0.00514 ± 0.0059 |
| ATAACGCG | 0.232 ± 0.021 |
| GCATTAAA | -0.207 ± 0.037 |
| CCGAAGGC | -0.0446 ± 0.081 |

| Sequence | PBM E-score of 8-mer |
| --- | --- |
| GATAGCGC | 0.315 ± 0.015 |
| AGATGGCC | -0.256 ± 0.0099 |
| ACTACTCG | -0.0337 ± 0.043 |
| GGATGAAA | -0.152 ± 0.013 |
| CTTCTAGC | 0.0419 ± 0.001 |
| CATGGAAC | -0.19 ± 0.03 |
| CTCAAGAA | -0.0351 ± 0.062 |
| CCACTGCC | -0.17 ± 0.095 |
| AAGCCGCC | 0.0264 ± 0.1 |
| AGAGTACC | -0.132 ± 0.064 |
| ACTAAGGG | -0.0243 ± 0.0032 |
| AGCAGTTA | 0.0764 ± 0.014 |
| CTTCTCTA | -0.24 ± 0.065 |
| AATACCTC | 0.00213 ± 0.03 |
| AGAACCAT | -0.12 ± 0.0091 |
| GATCTGCA | -0.0482 ± 0.082 |
| TAATTTAA | -0.134 ± 0.12 |
| CATAGTCC | -0.216 ± 0.019 |
| TCTTCTAA | -0.107 ± 0.0046 |
| ACGCAAGC | 0.043 ± 0.011 |
| ATGATCAC | 0.231 ± 0.013 |
| CACCGTGA | 0.241 ± 0.016 |
| ACGCCGCT | -0.0767 ± 0.029 |
| ACCCGCAG | -0.0801 ± 0.051 |
| AAACCTAC | -0.212 ± 0.034 |

| Sequence | PBM E-score of 8-mer |
| --- | --- |
| AACATATT | 0.0441 ± 0.1 |
| GGTCATTA | -0.201 ± 0.076 |
| ACGGAAGT | -0.00371 ± 0.0069 |
| CGGATGTC | -0.00886 ± 0.0041 |
| CCGTCACC | 0.356 ± 0.03 |
| ACATCAGG | -0.262 ± 0.04 |
| AACGTTCT | -0.0645 ± 0.085 |
| ATGCCATA | -0.125 ± 0.044 |
| AGAGGGCT | -0.157 ± 0.088 |
| ATTTAGGG | -0.173 ± 0.025 |
| AGGATACT | -0.158 ± 0.032 |
| ACGCATTA | 0.0776 ± 0.018 |
| AGAATAGA | -0.102 ± 0.08 |
| ACCAGCAT | -0.176 ± 0.026 |
| ATTGTTTG | -0.0825 ± 0.06 |
| TCAGTTCA | -0.185 ± 0.058 |
| AAGGTAAC | -0.00715 ± 0.095 |
| ACTTGCAA | 0.288 ± 0.026 |
| TGGGCACA | -0.0874 ± 0.015 |
| ATGGGCAA | -0.0885 ± 0.0056 |
| GTGTGAAC | 0.4888 ± 0.0019 |
| AACCCTGT | -0.195 ± 0.055 |
| GATTGCTA | 0.0717 ± 0.0034 |
| AGCCCTTG | -0.223 ± 0.13 |
| TAGATCGA | -0.291 ± 0.12 |

| Sequence | PBM E-score of 8-mer |
| --- | --- |
| GGGAGAAC | -0.0308 ± 0.04 |
| CACTATCC | 0.0472 ± 0.019 |
| CCGATGGC | 0.0496 ± 0.0056 |
| AAAAAAGC | -0.0763 ± 0.083 |
| GATCGGCA | 0.036 ± 0.041 |
| CGCGACCC | 0.162 ± 0.045 |
| CAATTCTG | 0.115 ± 0.053 |
| TGCTAAAA | 0.355 ± 0.059 |
| TCGACAGA | 0.165 ± 0.015 |
| AATGGTCA | 0.0182 ± 0.0061 |
| GCTGAATA | -0.0804 ± 0.021 |
| ATAATTTA | 0.0668 ± 0.061 |
| ACGTCCAG | 0.00044 ± 0.061 |
| AGAAGACT | -0.295 ± 0.017 |
| CATTTGCG | 0.05 ± 0.021 |
| AATACTCT | -0.111 ± 0.064 |
| ATCCCTCA | -0.0534 ± 0.037 |
| AGTGCGAA | 0.4725 ± 0.00067 |
| CTAGCCAA | -0.0952 ± 0.014 |
| CGTACCCA | -0.136 ± 0.041 |
| TACGTTAA | 0.00481 ± 0.056 |
| AGAATCTC | -0.101 ± 0.014 |
